Some of the results follow.
test system: PfAP2-HC AP2 domain (GST-tagged); experiment: gcPBM binding intensity (ln(normalized median fluorescence intensity)); higher = stronger DNA binding
In short: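 After 1 h on an Agilent 4 × 180k array of primer-extended double-stranded 36-bp intergenic genomic probes and negative controls, bound GST-tagged P. falciparum DNA-binding domains were detected with Alexa488 anti-GST antibody and scanned at 488 nm. The domains had been expressed in E. coli, and binding took place in 1× PBS with 1% milk, 0.2 mg/ml BSA, 0.5% salmon testes DNA and 0.03% Triton X-100. Binding intensity is the highest Masliner-normalised natural-log median intensity across replicate spots of either probe orientation.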

Row | Sequence | gcPBM binding intensity (ln)
1 | TATGAATACATTTGTTGTACTTAAATTTCCTTTATT [XGTACX_site5374] | 9.68
2 | TATAAATATCTGAATTGTACAGGTGAAAAAAAAAAT [XGTACX_site1867] | 9.71
3 | TTTTTTATTATTATTATTTTTTATGTATAATAATGT [CACACA_negctrl_site631] | 9.62
4 | TTTCTATTCCATTCAACACACAAAAATGTATGCTTT [CACACA_site1072] | 9.86
5 | AATGGATATTTCTTTATATATATCTTATTTGATTAT [XGTACX_negctrl_site284] | 9.53
6 | TATAAACGTATAATATGTACACACACATATATACAA [XGTACX_site1686] | 9.89
7 | ATTATATAGAATTGTACATGCGAATTGTATAACGAT [TGCATGCA_site125] | 9.76
8 | AAAAAAAAAAAAAAAAATATATTTATGAAATAAAAA [TGCATGCA_negctrl_site262] | 9.28
9 | TATTTTTTTTTTTTTTTTTTTTTTATATATACATAT [CACACA_negctrl_site23] | 9.69
10 | GAAGAAGTTTAAAAAGCACACAAAAAAAAAAAAAAA [CACACA_site9088] | 9.3
11 | CACAAAATAAATTAAACACACAACATCATATATGTA [CACACA_site846] | 10.3
12 | TATTTATAAACATACGCACACATTAATATATATATA [CACACA_site9314] | 9.89
13 | TAAATTATTATCCCCTCACACACAAAAATAAAAAGA [CACACA_site2886] | 10.3
14 | CTTGTAGATATAAAATGTACAAAAATAAATTGCACA [XGTACX_site4409] | 9.56
15 | ATTATTATTAATCTTGTGCACATATATTTTAATTAG | 9.74
16 | AGATATTCTACTATGTGTACATATATATATATAATT [XGTACX_site5060] | 9.8
17 | TTTTTCTTTCTATTTATCAATATTAAAAAAAAAAAA [CACACA_negctrl_site1629] | 8.89
18 | TTTTTTCAAATTTTCTTTTTTCTTTTGTTTTTTTTG [CACACA_negctrl_site380] | 9.48
19 | TATACATGTATATATTGTACATATGTTTTTTTTACA [XGTACX_site3300] | 9.65
20 | TTACTCATGAAAGATACACACATTCGTTATTTATAT [CACACA_site7517] | 9.89
21 | TTTTTATAATGATACATATATTATTTTATTCTTAAT [CACACA_negctrl_site124] | 9.54
22 | TAATGTTTCAAAATTTAATATACTACAAATATTATA [TGCATGCA_negctrl_site336] | 9.34
23 | ATGAACATCCAATATACACACATATATATTTATATT [CACACA_site829] | 9.93

Row | Sequence | gcPBM binding intensity (ln)
24 | TTTATATAGAAACACACACACAAAAAAAAAAAAAAA [CACACA_site2646] | 10.1
25 | TTACAAAAAAAAAGGCGCGGATGGGGGCAATAGCAA [CACACA_negctrl_site238] | 10.4
26 | CAAAAAAAAAAAAAAACACACATTAAATTATAAAGA [CACACA_site2613] | 9.66
27 | TAAGATATAAAAAATGTGCACATTAAAGTATTAATT | 9.86
28 | TGTTATTCTGCATATACACACAAATAACAATTTAAA [CACACA_site6943] | 9.54
29 | TCTTATGATGGAATGTTAAATATTACATTTTGTTTA [TGCATGCA_negctrl_site503] | 9.58
30 | CATTTCATTAATAAATGTACTTGTGAAGAGAAAAAG [XGTACX_site3115] | 9.47
31 | TATATGTGGGTTTTTTTTATGTGTTTTTCTTTTTTT [CACACA_negctrl_site936] | 10
32 | AAAAGATAAAAAGAAGTGCATAATAGGAACAAATAT [GTGCAC_site9717] | 9.92
33 | ACAAAATTTACAAAATGTACAAAATATACAAAATGT [XGTACX_site3543] | 9.69
34 | TTTACATTTTAGGAAGTGCATATAATAAATACTATC | 9.49
35 | CACATATATACACATACACACACACCCATACACCCA [CACACA_site8505] | 11
36 | TACATAAATACATACACACACATATAACCAATGTAG [CACACA_site5243] | 10.2
37 | ATCACATTCCACGGTACACACTAAAAGAAAAATCAG [CACACA_site5907] | 9.69
38 | ATTTATATTTAATATACACACATTATTTTTTTATAT [CACACA_site574] | 9.91
39 | AGAGTACAAGTAAATACACACATATATATGAAAATA [CACACA_site1079] | 10
40 | ATATAATATTTTAGAGTGCACCGATAACAATAAATA [GTGCAC_site9754] | 9.7
41 | TATAATATGACAAGAAGTACATATATTTACATATAT [XGTACX_site1571] | 9.63
42 | CAAGTATTATATTGCGCATGCAAAGAAGGACACAAA [TGCATGCA_site1024] | 9.96
43 | TTATCTAGTACATACATACACACAACCATGTTATGA [CACACA_site3988] | 9.78
44 | ATATATATATATATATATATAATAAAAGATCATTTA [XGTACX_negctrl_site371] | 9.64
45 | ATAATAAAAAGAAAAAGTACAAATGATTATGTTTGA [XGTACX_site3615] | 10
46 | TACTTTATTTTTTATACACACACAATATGTATATAT [CACACA_site9184] | 10

Row | Sequence | gcPBM binding intensity (ln)
47 | GTATTTCTTTAATATACACACACCAAAACAAAAAAA [CACACA_site579] | 10.2
48 | AATAAATAAATAAGTACACACATATAAATATAAATA [CACACA_site6271] | 9.96
49 | TTCTACATGAAGTTATAAATTAATATTTTAATTTAT [XGTACX_negctrl_site134] | 9.17
50 | ATAAGGATCAGACACAAACACACATATATATATATA [CACACA_site558] | 10.6
51 | ATAATTAATCCAAAATGTACTTACATTTTATATGAA [XGTACX_site8888] | 9.55
52 | AAATAATTCATATGTTGTACAGTAATTAAATTTTCT [XGTACX_site6343] | 9.61
53 | TTTTATAATTTATCTAAAAAAAAATAAAATAAAATG [TGCATGCA_negctrl_site429] | 8.94
54 | ATAAAATAAAATAAAAGTACATAAATATATATATAT [XGTACX_site6110] | 9.82
55 | TTTTTTTTTCTTTGCACACAGATAACTTGAAATTTG [CACACA_site2185] | 9.9
56 | ACATATATATATATTACACACACACTAATAAAATAA [CACACA_site7920] | 10.3
57 | TTTCAAGAATTATATAAACACACATACATACACCCA [CACACA_site8592] | 10.1
58 | AATAATATATATTACTGTACTAATATAAGGGACATC [XGTACX_site3744] | 9.83
59 | TTATTTTCTACAAATTGTACATATTTTTTACTACTC [XGTACX_site1394] | 10
60 | ATTTATGAAAAAAATACATGCATGTCCATATAAATT [TGCATGCA_site505] | 9.8
61 | TTGTCAAAAATTACACACATAAATGAATAAATAAAT [XGTACX_negctrl_site541] | 9.84
62 | TCTTTCTATTAAACATGTACTTGTCTAAAGACATAA [XGTACX_site8564] | 9.28
63 | CGAATAAATATATGTAGTACATGTTGTAGATAATTT [XGTACX_site1218] | 9.79
64 | TATATATATTTAAATTGTACATATATTATTCATATG [XGTACX_site911] | 9.59
65 | AAAAAAAAAAAAAAAAGTACAAATTTAAAAATGTGT [XGTACX_site112] | 9.44
66 | TTGGTTTCTTGTTTTTGTACCCATAATTTGTAATAT [XGTACX_site1248] | 9.78
67 | AATAATAAAATAAAAGTGCATTAATTATAATTCTTT [GTGCAC_site9491] | 9.65
68 | AATTATAATAATAATAGTACATAAGTATATAAATAA [XGTACX_site2400] | 9.89
69 | TCTTTCTAAATCTTACAAATTACTAAAATATTTATA [CACACA_negctrl_site87] | 9.41

Row | Sequence | gcPBM binding intensity (ln)
70 | GAGGAAAAAAAAAAAAGTACATTATATAAGAAAATT [XGTACX_site2610] | 9.45
71 | TTAAATATTTATATTTGTACACAATCAATCATACAC [XGTACX_site5793] | 9.64
72 | TTGTTATGCATTGGTTGTACATAAGTATAAGTAATT [XGTACX_site5401] | 9.65
73 | ATATATATATTTTATTGTACAAAAAAAAAAAAAAAA [XGTACX_site6803] | 9.13
74 | ATAGGATTCTCAAAGTGTACTTGTCTACTGTAGTTT [XGTACX_site4202] | 9.58
75 | TTTGTTTGTAAAATGTTGCACTTTCTTTTGCTGATA | 9.66
76 | AAAAAAAAAATATGTACACACATATAAAATACATAA [CACACA_site6869] | 9.97
77 | CCATTATACACAATATGTACATATATATAATCATTT [XGTACX_site7942] | 9.69
78 | TGTTTTGTTATTTTTATTTATATAAATAAAGCTATA [GTGCAC_negctrl_site88] | 9.59
79 | CATAAATACAGTAACACACACAAAAAAATATGAATA [CACACA_site6066] | 10.9
80 | ATATATATATTATATGCACACTAATAAGACTATTTA [CACACA_site5880] | 9.67
81 | GTAGTCCAAAAAAAGCGTACACAGAAAAAAAAAAAA [XGTACX_site4273] | 9.61
82 | ACATTGCACCCGTGCACACATAGAAAAATAATTCTT [CACACA_site409] | 9.69
83 | ATAACAAAAATCCTTGTGCACTATTTTAATAGAGTC | 9.72
84 | CATTATGATTAAATATGTACATATTATTATATAAAT [XGTACX_site2477] | 9.47
85 | TACATCTTACTACTTATAATATAATATAGTATGAAT [TGCATGCA_negctrl_site8] | 9.39
86 | TACAATATATTTATAGTGCATATTACTTTTAACTTT | 9.7
87 | TCGTAATAATATAAATGTACTTTATTAATTAAAAGA [XGTACX_site3416] | 9.51
88 | AAAAAAAATTTTATCTGTACACATTTTTTTCTTTTT [XGTACX_site4229] | 9.73
89 | ATATAATTTATGTGCACACACTCCTATTTTTAGCTT [CACACA_site50] | 10.2
